According to the supplement of paper PMC12217912:
Some of the results follow. The full chains were built here from the parent and the listed change. Inactive controls read about 0.05.

B1: TEV protease; numbered along this chain (parent)
chain: MGESLFKGPRDYNPISSSICHLTNESDGHTTSLYGIGFGPFIITNKHLFRRNNGTLVVQSLHGVFKVKDTTTLQQHLVDGRDMIIIRMPKDFPPFPQKLKFREPQREERICLVTTNFQTKSMSSMVSDTSCTFPSGDGIFWKHWIQTKDGQCGSPLVSTRDGFIVGIHSASNFTNTNNYFTSVPKNFMELLTNQEAQQWVSGWRLNADSVLWGGHKVFMVKPEEPFQPVKEATQL

Variants of: B1
Assay: raw area under fraction-flipped curve 0-4 h after induction (AUC4h, not background-subtracted), DNA-recorder readout of cleavage of the substrate (dimensionless); higher = more cleavage of the substrate by the protease variant
Details: temperature: 34 °C; time window: 0-4 h after rhamnose induction
Experimental: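 In vivo DNA recorder in E. coli TOP10(DE3) ΔrhaA at 34 °C. Each TEVp single-site mutant (parent TEVp 0) is paired with a single-site variant of the 7-mer TEVs (canonical ENLYFQ|S). The substrate sits between flexible linkers in a Bxb1-sfGFP-TEVs-SsrA fusion, so cleavage stabilises Bxb1 and speeds flipping of a recombination array, read by NGS. The value is the raw area under the fraction-flipped curve over 0-4 h after rhamnose induction (AUC4h), with ≥20 reads per time point. It is not background-subtracted; inactive controls average about 0.047.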
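Also: Bxb1 expression induced with 0.2% (w/v) L-rhamnose at OD600 near 0.5, cultures sampled hourly, flipped fraction per protease–substrate barcode pair counted by paired-end Illumina sequencing.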

| Variant | area with substrate EALYFQS | area with substrate EFLYFQS | area with substrate EILYFQS | area with substrate EKLYFQS | area with substrate ELLYFQS | area with substrate EMLYFQS | area with substrate EPLYFQS | area with substrate EQLYFQS | area with substrate ERLYFQS | area with substrate ESLYFQS | area with substrate EVLYFQS | area with substrate EDLYFQS | area with substrate EGLYFQS | area with substrate EHLYFQS | area with substrate ETLYFQS | area with substrate EWLYFQS | area with substrate EYLYFQS | area with substrate EELYFQS | area with substrate ECLYFQS |
| --- | --- | --- | --- | --- | --- | --- | --- | --- | --- | --- | --- | --- | --- | --- | --- | --- | --- | --- | --- |
| R10F | 0.0909 | 0.115 | 0.0739 | 0.0703 | 0.0731 | 0.0828 | 0.101 | 0.0949 | 0.0795 | 0.088 | 0.0481 |  |  |  |  |  |  |  |  |
| R10Y | 0.0574 |  | 0.0717 | 0.0936 | 0.0824 | 0.0899 |  | 0.0958 | 0.0756 |  | 0.0844 | 0.0863 | 0.0845 | 0.0634 | 0.0885 | 0.0789 | 0.0854 |  |  |
| R10T | 0.126 |  | 0.0935 | 0.117 | 0.108 | 0.111 |  | 0.108 | 0.105 | 0.0965 |  | 0.16 | 0.0914 | 0.101 |  |  |  | 0.121 |  |
| F49W | 0.0926 |  | 0.1 | 0.117 | 0.082 | 0.093 | 0.1 | 0.103 | 0.0773 | 0.0961 | 0.0951 |  |  |  |  | 0.0819 |  | 0.111 | 0.0886 |
| F38Q | 0.112 | 0.105 | 0.0811 | 0.109 | 0.0899 | 0.108 | 0.128 | 0.115 | 0.11 | 0.107 | 0.0861 | 0.101 | 0.0437 | 0.1 | 0.11 | 0.0864 |  |  |  |
| V78L | 0.101 |  | 0.0876 | 0.147 |  |  | 0.135 | 0.119 |  | 0.103 | 0.111 |  |  |  |  |  | 0.0859 |  | 0.117 |
| V78R | 0.0548 |  |  | 0.0235 |  |  |  |  |  | 0.0146 |  | 0.0402 |  | 0.052 | 0.0527 | 0.0581 | 0.0698 | 0.0701 |  |
| L5C | 0.119 |  | 0.128 |  |  |  |  |  |  | 0.0998 |  |  | 0.0958 | 0.127 |  | 0.0987 |  |  | 0.128 |
| L5K | 0.125 |  |  | 0.108 |  |  | 0.17 |  |  | 0.14 |  |  |  | 0.111 | 0.139 | 0.0972 |  | 0.147 |  |
| L5N | 0.143 |  | 0.135 | 0.131 | 0.0911 |  | 0.121 | 0.16 |  | 0.134 | 0.121 |  | 0.12 |  | 0.129 |  |  |  | 0.135 |
| V67I | 0.13 |  | 0.0795 | 0.129 |  |  | 0.144 | 0.11 | 0.0855 |  | 0.0911 |  | 0.0691 |  |  |  |  |  | 0.11 |
| V67Y | 0.0959 |  |  | 0.0648 |  | 0.109 |  | 0.081 |  | 0.0594 | 0.0911 |  |  |  |  | 0.1 |  | 0.0823 | 0.0813 |
| I36K | 0.028 |  | 0.0739 | 0.0479 |  |  |  |  | 0.0662 | 0.0451 |  |  |  |  |  | 0.0428 |  | 0.0426 | 0.0377 |
| K7L | 0.069 |  | 0.0485 | 0.0728 |  | 0.0622 |  | 0.0724 |  | 0.09 |  |  |  |  |  |  |  | 0.0709 | 0.0703 |
| E3T | 0.166 |  |  |  |  | 0.127 |  |  |  | 0.128 |  |  |  |  |  |  |  |  | 0.118 |
| F41H | 0.103 | 0.144 | 0.0761 |  |  | 0.103 |  | 0.0901 |  | 0.105 | 0.0887 |  | 0.0785 | 0.092 | 0.1 | 0.0943 | 0.0882 |  |  |
| L22Q | 0.0421 |  | 0.0321 |  | 0.041 | 0.0557 | 0.0566 | 0.0495 | 0.0364 | 0.0659 | 0.0363 | 0.0377 |  |  |  | 0.0918 | 0.0476 |  |  |

| Variant | area with substrate EALYFQS | area with substrate EFLYFQS | area with substrate EILYFQS | area with substrate EKLYFQS | area with substrate ELLYFQS | area with substrate EMLYFQS | area with substrate EPLYFQS | area with substrate EQLYFQS | area with substrate ERLYFQS | area with substrate ESLYFQS | area with substrate EVLYFQS | area with substrate EDLYFQS | area with substrate EGLYFQS | area with substrate EHLYFQS | area with substrate ETLYFQS | area with substrate EWLYFQS | area with substrate EYLYFQS | area with substrate EELYFQS | area with substrate ECLYFQS |
| --- | --- | --- | --- | --- | --- | --- | --- | --- | --- | --- | --- | --- | --- | --- | --- | --- | --- | --- | --- |
| Q59D | 0.13 |  | 0.117 |  | 0.0851 |  |  |  |  |  |  |  |  |  | 0.108 |  |  | 0.11 | 0.102 |
| Q59L | 0.138 |  | 0.122 |  |  | 0.114 |  |  |  | 0.109 |  | 0.15 |  |  | 0.112 |  |  |  |  |
| I43Y | 0.0562 |  | 0.0494 | 0.06 | 0.0413 | 0.0529 |  | 0.0496 | 0.0437 | 0.0552 |  |  |  |  | 0.054 | 0.056 | 0.038 | 0.0564 | 0.0359 |
| G37Y | 0.0623 |  | 0 | 0.0708 | 0.0501 | 0.0724 | 0.0728 |  | 0.0707 | 0.0609 |  |  |  |  | 0.0591 | 0.0661 | 0.0783 |  | 0.0643 |
| V58H | 0.0596 |  | 0.0321 | 0.06 |  |  |  | 0.0693 | 0.0529 | 0.0424 |  |  |  |  | 0.0601 | 0.0425 |  |  |  |
| V58N | 0.0909 |  |  |  | 0.0587 |  |  |  |  |  |  |  | 0.043 | 0.0486 | 0.0267 |  |  |  |  |
| S26Y | 0.0711 |  | 0.0779 |  |  | 0.105 |  | 0.0819 | 0.0831 | 0.0739 | 0.077 | 0.0942 | 0.0776 |  |  | 0.0794 |  | 0.085 |  |
| S4Q | 0.102 |  | 0.0935 |  |  | 0.126 | 0.128 | 0.126 |  | 0.108 | 0.0939 |  |  | 0.119 | 0.131 | 0.0976 | 0.125 |  | 0.108 |
| F6P | 0.0967 |  | 0.0813 |  | 0.0798 | 0.0959 | 0.0985 |  |  | 0.0929 | 0.0886 |  |  |  |  |  |  |  |  |
| F6G | 0.0642 |  | 0.0911 |  |  |  |  |  |  |  | 0.0805 |  |  |  |  |  |  | 0.151 | 0.0889 |
| G63S | 0.0931 |  | 0.0816 | 0.113 | 0.0819 | 0.107 |  | 0.103 |  | 0.108 | 0.0594 | 0.111 |  | 0.1 |  | 0.0779 | 0.0956 |  |  |
| T30I | 0.164 |  | 0.0667 | 0.0701 |  |  | 0.0753 | 0.127 | 0.114 | 0.108 | 0.132 | 0.139 |  |  |  | 0.101 |  |  |  |
| T30P | 0.0938 |  |  | 0.109 |  |  | 0.0777 | 0.11 | 0.0774 | 0.0886 |  |  | 0.0815 |  |  |  |  |  | 0.0973 |
| I42K | 0.0529 | 0.0384 | 0.0497 | 0.0316 | 0.0533 | 0.0498 | 0.0394 | 0.046 | 0.0522 | 0.0441 | 0.0514 |  | 0.0504 | 0.0484 | 0.0507 | 0.0387 | 0.0374 |  | 0.0492 |
| I15T | 0.102 | 0.0874 | 0.109 | 0.126 | 0.102 | 0.148 |  | 0.113 | 0.0985 | 0.109 | 0.0939 |  | 0.0971 | 0.0908 |  | 0.0871 |  |  | 0.105 |
| Q74M | 0.105 | 0.103 | 0.101 | 0.11 | 0.092 | 0.108 | 0.0593 | 0.161 | 0.127 | 0.105 | 0.0863 |  | 0.0953 |  |  |  | 0.0985 |  | 0.0956 |
